# Test results: the supplement of paper PMC8728848
# This is one part of the list.
# Legend:
# Experiment in all cases: glycan array binding signal (z-score within array); higher = stronger binding
# Conditions in all cases: glycan notation: IUPAC condensed, linker removed
# [1] = target: Neu5Ac(a2-6)GlcNAc(b1-4)GlcNAc(b1-4)GlcNAc
# In short: (§1)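 Glycan array binding is given as a within-array Z-score, which can be read as non-binding when negative. The arrays, 3228 of them, came from the Consortium for Functional Glycomics database and were retained only where the protein sequence was available. Z-scores were averaged across arrays of the same protein sequence at different concentrations or buffers and across linkers.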
# Neu5Ac(a2-8)Neu5Ac = target: Neu5Ac(a2-8)Neu5Ac
# In short: as §1
# [2] = target: Neu5Ac(a2-8)Neu5Ac(a2-3)Gal(b1-3)GalNAc(b1-4)[Neu5Ac(a2-3)]Gal(b1-4)Glc
# In short: as §1
# [3] = target: Neu5Ac(a2-8)Neu5Ac(a2-3)Gal(b1-3)GalNAc(b1-4)[Neu5Ac(a2-8)Neu5Ac(a2-3)]Gal(b1-4)Glc
# In short: as §1
# [4] = target: Neu5Ac(a2-8)Neu5Ac(a2-3)Gal(b1-4)Glc
# In short: as §1
# [5] = target: Neu5Ac(a2-8)Neu5Ac(a2-3)Gal(b1-4)GlcNAc
# In short: as §1
# [6] = target: Neu5Ac(a2-8)Neu5Ac(a2-3)[Gal(b1-3)GalNAc(b1-4)]Gal(b1-4)Glc
# In short: as §1
# [7] = target: Neu5Ac(a2-8)Neu5Ac(a2-3)[GalNAc(b1-4)]Gal(b1-4)Glc
# In short: as §1
# [8] = target: Neu5Ac(a2-8)Neu5Ac(a2-8)Neu5Ac
# In short: as §1
# [9] = target: Neu5Ac(a2-8)Neu5Ac(a2-8)Neu5Ac(a2-3)Gal(b1-4)Glc
# In short: as §1
# [10] = target: Neu5Ac(a2-8)Neu5Ac(a2-8)Neu5Ac(a2-3)[Gal(b1-3)GalNAc(b1-4)]Gal(b1-4)Glc
# In short: as §1
# [11] = target: Neu5Ac(a2-8)Neu5Ac(a2-8)Neu5Ac(a2-3)[GalNAc(b1-4)]Gal(b1-4)Glc
# In short: as §1
# [12] = target: Neu5Ac(a2-8)Neu5Ac(a2-8)Neu5Ac(a2-8)Neu5Ac(a2-3)[GalNAc(b1-4)]Gal(b1-4)Glc
# In short: as §1
# [13] = target: Neu5Ac(a2-8)Neu5Gc(a2-3)Gal(b1-4)GlcNAc
# In short: as §1
# [14] = target: Neu5Ac(b2-6)Gal(b1-4)GlcNAc
# In short: as §1
# Neu5Ac(b2-6)GalNAc = target: Neu5Ac(b2-6)GalNAc
# In short: as §1
# [15] = target: Neu5Ac9Ac(a2-3)Gal(b1-3)GlcNAc
# In short: as §1
# [16] = target: Neu5Ac9Ac(a2-3)Gal(b1-4)GlcNAc
# In short: as §1
# [17] = target: Neu5Ac9Ac(a2-6)Gal(b1-4)GlcNAc
# In short: as §1
# [18] = target: Neu5Gc(a2-3)Gal(b1-3)GlcNAc
# In short: as §1
# [19] = target: Neu5Gc(a2-3)Gal(b1-3)[Fuc(a1-4)]GlcNAc
# In short: as §1
# Neu5Gc(a2-3)Gal(b1-4)Glc = target: Neu5Gc(a2-3)Gal(b1-4)Glc
# In short: as §1
# [20] = target: Neu5Gc(a2-3)Gal(b1-4)GlcNAc
# In short: as §1
# [21] = target: Neu5Gc(a2-3)Gal(b1-4)GlcNAc(b1-3)Gal(b1-4)GlcNAc(b1-2)Man(a1-3)[Neu5Gc(a2-3)Gal(b1-4)GlcNAc(b1-3)Gal(b1-4)GlcNAc(b1-2)Man(a1-6)]Man(b1-4)GlcNAc(b1-4)GlcNAc
# In short: as §1
# [22] = target: Neu5Gc(a2-3)Gal(b1-4)[Fuc(a1-3)]GlcNAc
# In short: as §1
# [23] = target: Neu5Gc(a2-3)Gal(b1-4)[Fuc(a1-4)]GlcNAc
# In short: as §1
# [24] = target: Neu5Gc(a2-6)Gal(b1-4)GlcNAc
# In short: as §1
# Neu5Gc(a2-6)GalNAc = target: Neu5Gc(a2-6)GalNAc
# In short: as §1
# [25] = target: Neu5Gc(a2-8)Neu5Ac(a2-3)Gal(b1-4)GlcNAc
# In short: as §1
# [26] = target: Neu5Gc(a2-8)Neu5Gc(a2-3)Gal(b1-4)GlcNAc
# In short: as §1
# [27] = target: Neu5Gc(a2-8)Neu5Gc(a2-3)Gal(b1-4)GlcNAc(b1-3)Gal(b1-4)GlcNAc
# In short: as §1
# [28] = target: Neu5Gc(a2-8)Neu5Gc(a2-6)Gal(b1-4)GlcNAc
# In short: as §1
# [29] = target: Neu5Gc(b2-6)Gal(b1-4)GlcNAc
# In short: as §1
binder,measurement,setting,value
Epa15 (Candida glabrata) (protein) MGSSHHHHHHSSGLVPRGSHMASDPTTFPLGCSPEFTKTKKGLSMELYRYDYLPPGSYPCWDSAYLNPSYPRTGYKAKKLIATVDGVSGDINFKFNPKFGCKAIPDYLPSNFNYHEPITITNFTMILYGYFMPKTTAFHTFYVTADDLLFMNFGAGNAFDCCRREETADKFGNYAAYSVWGKKSLKNELTVYLHTGVYYPIRLFYNNRDYIAQLDIRFKTEHSNAIITNFTDYFYSVDDSSLGCPGLI,glycan array binding signal (z-score),[1],-0.583
same,glycan array binding signal (z-score),Neu5Ac(a2-8)Neu5Ac,-0.571
same,glycan array binding signal (z-score),[2],-0.457
same,glycan array binding signal (z-score),[3],1.19
same,glycan array binding signal (z-score),[4],-0.433
same,glycan array binding signal (z-score),[5],-0.538
same,glycan array binding signal (z-score),[6],0.235
same,glycan array binding signal (z-score),[7],0.262
same,glycan array binding signal (z-score),[8],-0.233
same,glycan array binding signal (z-score),[9],-0.382
same,glycan array binding signal (z-score),[10],-0.09
same,glycan array binding signal (z-score),[11],0.076
same,glycan array binding signal (z-score),[12],-0.236
same,glycan array binding signal (z-score),[13],-0.727
same,glycan array binding signal (z-score),[14],0.301
same,glycan array binding signal (z-score),Neu5Ac(b2-6)GalNAc,-0.535
same,glycan array binding signal (z-score),[15],-0.641
same,glycan array binding signal (z-score),[16],-0.483
same,glycan array binding signal (z-score),[17],-0.438
same,glycan array binding signal (z-score),[18],-0.414
same,glycan array binding signal (z-score),[19],-0.346
same,glycan array binding signal (z-score),Neu5Gc(a2-3)Gal(b1-4)Glc,-0.302
same,glycan array binding signal (z-score),[20],-0.437
same,glycan array binding signal (z-score),[21],-0.282
same,glycan array binding signal (z-score),[22],-0.295
same,glycan array binding signal (z-score),[23],-0.275
same,glycan array binding signal (z-score),[24],-0.258
same,glycan array binding signal (z-score),Neu5Gc(a2-6)GalNAc,-0.336
same,glycan array binding signal (z-score),[25],-0.511
same,glycan array binding signal (z-score),[26],-0.346
same,glycan array binding signal (z-score),[27],-0.637
same,glycan array binding signal (z-score),[28],-0.395
same,glycan array binding signal (z-score),[29],0.338
